Out of some 310,000 compounds screened, about 2,200 (0.71%) showed an effect of 50% or more. Effects have a minus sign here. This is one part of the list.
target: human ether-à-go-go-related gene (hERG) potassium channel (human, UniProt Q12809); test: primary screen, population patch clamp on CHO cells stably expressing hERG
Sequence (Q12809 whole entry, looked up): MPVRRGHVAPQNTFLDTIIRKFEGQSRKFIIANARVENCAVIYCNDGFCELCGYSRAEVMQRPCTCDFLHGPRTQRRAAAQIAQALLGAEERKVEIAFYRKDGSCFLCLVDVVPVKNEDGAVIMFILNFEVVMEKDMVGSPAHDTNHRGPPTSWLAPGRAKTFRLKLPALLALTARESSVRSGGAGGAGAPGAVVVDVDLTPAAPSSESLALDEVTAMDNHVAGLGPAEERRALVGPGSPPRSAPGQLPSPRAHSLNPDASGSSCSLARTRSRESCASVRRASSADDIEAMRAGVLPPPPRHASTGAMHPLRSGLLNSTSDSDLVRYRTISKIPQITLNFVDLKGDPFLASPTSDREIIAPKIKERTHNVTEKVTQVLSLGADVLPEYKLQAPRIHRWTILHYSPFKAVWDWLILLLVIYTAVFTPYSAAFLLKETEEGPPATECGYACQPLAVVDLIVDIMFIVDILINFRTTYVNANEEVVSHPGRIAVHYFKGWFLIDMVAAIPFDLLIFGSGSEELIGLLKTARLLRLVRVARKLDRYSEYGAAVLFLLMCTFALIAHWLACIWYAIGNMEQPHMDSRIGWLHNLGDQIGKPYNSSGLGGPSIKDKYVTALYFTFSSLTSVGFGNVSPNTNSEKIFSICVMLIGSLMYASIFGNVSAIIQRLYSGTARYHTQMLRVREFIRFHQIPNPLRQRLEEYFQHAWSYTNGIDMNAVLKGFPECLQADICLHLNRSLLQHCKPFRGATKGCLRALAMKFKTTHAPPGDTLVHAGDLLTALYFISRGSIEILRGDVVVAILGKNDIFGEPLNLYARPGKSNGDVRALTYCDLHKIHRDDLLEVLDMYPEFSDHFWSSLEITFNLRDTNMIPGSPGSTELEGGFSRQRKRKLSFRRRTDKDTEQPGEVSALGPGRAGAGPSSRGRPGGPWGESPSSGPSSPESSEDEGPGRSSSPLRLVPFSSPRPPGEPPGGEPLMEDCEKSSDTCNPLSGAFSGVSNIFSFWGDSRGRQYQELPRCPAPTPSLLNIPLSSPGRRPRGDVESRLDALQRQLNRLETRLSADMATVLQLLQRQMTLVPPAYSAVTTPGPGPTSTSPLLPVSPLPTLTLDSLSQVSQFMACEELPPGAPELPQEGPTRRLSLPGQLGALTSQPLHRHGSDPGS

First: O=C(NC1CC1)C1=C[C@@H](c2csc3ccccc23)C[C@@H](OCCCCO)O1
Second: Cc1ccccc1OCCCC(=O)NCc1ccco1
The “hERG current change (%, negative = inhibition) at 1uM” value of the first is lower: 0.813% for the first, 1.42% for the second.

Going from `CCN(CC(=O)NC1CC1)S(=O)(=O)c1ccc(C)cc1` to `CSc1ccc(C2NC(=O)CCC2[N+](=O)[O-])cc1` (stereo not shown), the “hERG current change (%, negative = inhibition) at 1uM” value falls from 5.39% to -1.11%.

Compared with `COc1ccc(N2C(=O)CCC2(C#N)c2ccc(Br)cc2)cc1` (stereo not shown), `CN(C)/C=C1\SC(=S)N(c2ccc(Br)cc2)C1=O` is lower in “hERG current change (%, negative = inhibition) at 1uM” value: 8.73% for the first, 7.96% for the second.

First: CC(=N\NC(=O)c1ccccc1)/C(=N/O)C(=O)Nc1ccccc1
Second: O=C(Nc1cccc(C(=O)O)c1)/C(=C\c1ccccc1Cl)NC(=O)c1ccco1
The “hERG current change (%, negative = inhibition) at 1uM” value of the first is higher: 13.7% for the first, 7.26% for the second.

First: Cn1c(N)c(C(=O)COC(=O)CCOc2ccc(C(C)(C)C)cc2)c(=O)n(C)c1=O
Second: CSCCNC(=O)c1ccc(C(C)(C)C)cc1
The “hERG current change (%, negative = inhibition) at 1uM” value of the first is higher: 10.6% for the first, 2.85% for the second.

Compared with `CC(C)(C)c1ccc(-c2nnc(SCC(=O)c3ccc4c(c3)OCCO4)o2)cc1`, `Cc1ccc(F)cc1NC(=O)N1CCN(c2ccnc3cc(Cl)ccc23)CC1` is lower in “hERG current change (%, negative = inhibition) at 1uM” value: 7.2% for the first, -31.8% for the second.

First: C[C@]1(C(=O)O)C=C[C@@H](Cc2ccccc2)N1C(=O)c1ccccc1
Second: C[C@@H]([C@@H](O)c1ccccc1)N(C)C(=O)Cc1ccccc1
The “hERG current change (%, negative = inhibition) at 1uM” value of the first is higher: 8.82% for the first, 7.58% for the second.

First: COc1cc(OC)cc(C(=O)NCC(=O)Nc2ccc(C)c(Cl)c2)c1
Second: COCCn1cc(C(=O)c2ccccc2OCC(=O)Nc2cc(C)on2)cc(C#N)c1=O
The “hERG current change (%, negative = inhibition) at 1uM” value of the first is higher: 12.6% for the first, 6.23% for the second.

First: S=C(Nc1cccc(Cl)c1)Nc1cccc2cnccc12
Second: N#C/C(=C\c1cccnc1)C(=O)Nc1ccccc1[N+](=O)[O-]
The “hERG current change (%, negative = inhibition) at 1uM” value of the first is lower: 4.76% for the first, 13.7% for the second.

First: Cc1ccc2c(c1)CN1CN2Cc2cc(C)ccc21
Second: O=C(Nc1ccc2c(c1)CCC2)c1ccc(Br)o1
The “hERG current change (%, negative = inhibition) at 1uM” value of the first is lower: 1.52% for the first, 4.59% for the second.

Compared with `CC(=O)Nc1cc(N=Cc2ccc(O)cc2O)c(Cl)cc1Cl`, `O=C(/C=C/c1ccccc1O)c1ccc(Cl)cc1` is higher in “hERG current change (%, negative = inhibition) at 1uM” value: 9.03% for the first, 9.95% for the second.

First: C=CCn1c(SCC(=O)NCC(c2ccccc2)N(C)C)nnc1C1CCCCC1 (stereo not shown)
Second: CCc1ccccc1NC(=O)CCCN1C(=O)C2CC=CCC2C1=O (stereo not shown)
The “hERG current change (%, negative = inhibition) at 1uM” value of the first is lower: 13% for the first, 13.2% for the second.

For `Cc1ccc(C(=O)N/C(=C\c2ccc(F)cc2)C(=O)NCc2ccncc2)cc1`, the “hERG current change (%, negative = inhibition) at 1uM” value was -81.2%.

— article PMC4336329 (PLoS ONE, 2015)
